# In PubChem BioAssay AID1460 (National Center for Advancing Translational Sciences (NCATS), 2008):
# “And” between values parts separate entries of the source, which are not always exact repeats. Equal values may be shown once. Among all 270,000 compounds or so, about 5,800 (2.1%) were called active. This list was built around the results that the source calls inconclusive (neither active nor inactive); the mix of calls is not that of the screen. Calls follow the shape of the dose curve; as a rule, active = well fitted inhibition curve with a large enough effect; inconclusive = small, poorly fitted or top-dose-only effect; inactive = flat fitted curve, though single readings scatter. Potencies of inconclusive entries are doubtful fits and often do not repeat.
# Target: Microtubule-associated protein tau (Homo sapiens) (UniProt P10636)
# Assay: qHTS for Inhibitors of Tau Fibril Formation, Thioflavin T Binding; also: nearly all actives have a fitted effect of over 55% in size
# Settings: recombinant tau K18 P301L, heparin-induced fibrillization, ThT fluorescence; series mostly up to 57.4 µM
# Summary of the method: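 ThT emission at 510 nm, taken 1 hr after adding 30 uM dye, quantifies aggregates formed when 20 uM heparin acts on human tau K18 P301L for 6 hr at 37 C.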
# % is scaled to controls: 0 for no effect and ±100 for the full control effect; potency is read from the fitted curve at half-maximal effect; tags tell the direction and shape of the fitted curve.
# Sequence of UniProt P10636 (P10636 whole entry, looked up): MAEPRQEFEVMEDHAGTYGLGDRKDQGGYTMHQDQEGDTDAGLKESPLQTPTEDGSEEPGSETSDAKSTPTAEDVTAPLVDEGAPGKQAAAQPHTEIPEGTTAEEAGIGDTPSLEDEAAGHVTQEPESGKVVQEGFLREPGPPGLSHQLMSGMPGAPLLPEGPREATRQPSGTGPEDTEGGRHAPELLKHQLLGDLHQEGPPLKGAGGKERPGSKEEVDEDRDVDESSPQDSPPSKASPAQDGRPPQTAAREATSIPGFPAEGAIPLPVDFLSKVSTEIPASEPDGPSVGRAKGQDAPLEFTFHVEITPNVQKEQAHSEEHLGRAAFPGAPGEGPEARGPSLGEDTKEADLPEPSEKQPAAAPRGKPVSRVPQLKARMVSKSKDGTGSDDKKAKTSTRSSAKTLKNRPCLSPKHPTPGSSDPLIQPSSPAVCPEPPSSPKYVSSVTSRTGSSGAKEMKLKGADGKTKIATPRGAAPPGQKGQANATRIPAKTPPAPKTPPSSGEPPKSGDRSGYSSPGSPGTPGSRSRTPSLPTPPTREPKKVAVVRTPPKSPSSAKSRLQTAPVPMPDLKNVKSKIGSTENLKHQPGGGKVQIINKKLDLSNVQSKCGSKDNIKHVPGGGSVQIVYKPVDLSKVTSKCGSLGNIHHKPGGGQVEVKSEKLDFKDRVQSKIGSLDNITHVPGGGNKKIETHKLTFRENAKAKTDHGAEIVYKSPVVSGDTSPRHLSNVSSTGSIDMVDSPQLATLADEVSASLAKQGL
Compound,Potency,"activity, negative = inhibition"
O=C(CSc1nc2ccccc2[nH]1)N=Nc1c(O)[nH]c2ccccc12,active: 14.1 µM,–
Cc1ccc(/C=N\NC(=O)C2COc3cc4ccccc4cc3O2)o1 (centres undefined),"inconclusive: 2.82 µM [inhibitor, partial curve]",–
CCN(CC)CCCn1c(=S)[nH]c2cc(C(=O)OC)ccc2c1=O,inactive,–
Cc1ccc(S(=O)(=O)Nc2ccc(N(C)C)cc2)cc1,"inconclusive: 22.4 µM [inhibitor, single point]",–
COc1ccc(/C=C/C(=O)NCC(=O)N/N=C/c2cc(Br)ccc2OCc2ccccc2)cc1,"inconclusive: 35.5 µM [inhibitor, single point]",–
O=C(Nc1ccc(N2CCN(C(=O)c3ccccc3)CC2)cc1)c1ccc(Br)o1,"inconclusive: 17.8 µM [inhibitor, partial curve]",–
CCOC(=O)C1=C(N)OC2=C(C(=O)CC(C)(C)C2)C1c1ccoc1 (centres undefined),"inconclusive: 20 µM [inhibitor, partial curve]",–
Cc1ccc(-n2[nH]c(C)c(C=Nc3ccc(S(=O)(=O)Nc4nccs4)cc3)c2=O)cc1,"inconclusive: 20 µM [inhibitor, single point]",–
Oc1ccc(-c2nc(=S)[nH][nH]2)cc1,inactive,–
Cc1ccc(N2C(=S)NC3c4cc(Cl)ccc4OC2(C)C3C(=O)N(C)C)cc1 (centres undefined),inactive,–
COc1ccc(-c2cc(C(=O)Nc3sc4c(c3C#N)CCCC4)no2)cc1OC,"inconclusive: 2.82 µM [inhibitor, partial curve]",–
COc1cccc(NC(=O)c2ccc3nc(Cc4ccccc4)oc3c2)c1,inactive,–
Cc1ccc(S(=O)(=O)NCC23C=CC(O2)C2C(=O)N(c4ccccc4)C(=O)C23)cc1 (centres undefined),"inconclusive: 31.6 µM [inhibitor, partial curve, poor fit]",–
Cc1[nH][nH]c(=O)c1C(c1ccc(-c2ccc(Cl)c(C(=O)O)c2)o1)c1c(C)[nH][nH]c1=O,active: 10 µM,–
Cc1ccc(NC(=O)COC(=O)C2(c3ccc(Cl)cc3)CCCC2)cc1,"inconclusive: 12.6 µM [inhibitor, partial curve]",–
C[C@H]1Cc2c(-c3ccccc3)nc3c(c2CO1)CN(C(=O)NCCc1c[nH]c2ccccc12)CC3,–,inactive: 2.21% [at 11.5 µM]
O=C(NNC(=S)Nc1ccccc1C(F)(F)F)c1ccc(Br)o1,"inconclusive: 0.447 µM [inhibitor, full curve, poor fit]",–
CC(=O)Nc1sc(NC(=O)c2ccc([N+](=O)[O-])cc2)nc1-c1cccs1,active: 7.94 µM,–
CCN(CC)S(=O)(=O)c1cccc(-c2nc3n(n2)Cc2ccccc2-3)c1,inactive,–
Cc1ccccc1N=C1NC(=O)/C(=C/c2cccn2-c2cccc(C(=O)O)c2)S1,"inconclusive: 17.8 µM [inhibitor, partial curve]",–
C=C(CO)C1Cc2c(ccc3c(=O)c4c(oc23)COc2cc(OC)c(OC)cc2-4)O1 (centres undefined),"inconclusive: 1 µM [inhibitor, full curve]",–

Compound,Potency,"activity, negative = inhibition"
CCOC(=O)c1sc2nc(C3CC3)cc(-c3ccc(OC)cc3)c2c1N,"inconclusive: 5.62 µM [inhibitor, full curve]",–
CC1=NN(c2ccc(C)cc2C)C(=O)C1C(c1ccccc1)C1C(=O)N(c2ccc(C)cc2C)N=C1C (centres undefined),"inconclusive: 11.2 µM [inhibitor, partial curve]",–
Cc1ccc(C(=O)Nc2ccc3oc(-c4ccncc4)nc3c2)c(Cl)c1,"inconclusive: 1.41 µM [inhibitor, full curve]",–
COc1cccc(C2=CC(c3ccc(OC)c(OC)c3)NC(=S)N2)c1 (centres undefined),"inconclusive: 0.891 µM [inhibitor, partial curve]",–
Cc1cc(C(=O)CSc2nnc(-c3ccccc3F)o2)c(C)n1Cc1cccs1,"inconclusive: 22.4 µM [inhibitor, partial curve]",–
COc1ccccc1Oc1coc2c(CN(C)C)c(O)ccc2c1=O,inactive,–
COC(=O)c1ccc(-n2c(C)cc(C(=O)CCl)c2C)cc1,"inconclusive: 17.8 µM [inhibitor, partial curve]",–
CCC(=O)Nc1ccc(NC(=S)Nc2ccccc2)cc1,inactive,–
COc1ccc(N2C(=O)C(CC(=O)Nc3ccc(Cl)cc3)N(NC(=O)c3cccc(F)c3)C2=S)cc1 (centres undefined),"inconclusive: 11.2 µM [inhibitor, partial curve, poor fit]",–
COC1(OC)N=C(NC(=O)Nc2ccccc2)C2(C#N)C(c3ccccc3)C12C#N (centres undefined),active: 20 µM,–
Cn1c2ccccc2c(=O)c2c(=O)n(C3CCCCC3)c(-c3cccs3)nc21,"inconclusive: 17.8 µM [inhibitor, partial curve]",–
O=C1NC(=O)/C(=C\c2ccc(N3CCOCC3)o2)N1,"inconclusive: 5.62 µM [inhibitor, partial curve]",–
Cc1nn(-c2ccccc2)c(OC(=O)C(C)(C)C)c1Sc1ccccc1,"inconclusive: 14.1 µM [inhibitor, partial curve]",–
CCCc1cc(C(=O)Nc2c(C)nn(Cc3ccc(Cl)c(Cl)c3)c2C)no1,inactive,–
O=C(NC12CC3CC(CC(C3)C1)C2)N1CCN(c2nc(-c3ccccc3)cs2)CC1,"inconclusive: 10 µM [inhibitor, partial curve]",–
CCCC1(C(=O)OC)C=C2C(=C(c3ccccc3)C(=O)C2C)CN1 (centres undefined),"inconclusive: 8.91 µM [inhibitor, partial curve]",–
Cc1ccc(NC(=S)N/N=C2\CCCCC2C)cc1 (centres undefined),"inconclusive: 20 µM [inhibitor, partial curve]",–
COc1ccc(NC(=O)CN(C)CC(=O)Nc2ccc(N3CCOCC3)cc2)c([N+](=O)[O-])c1,"inconclusive: 15.8 µM [inhibitor, partial curve]",–
CO[C@@H]1COC(=O)C/C=C\[C@H](C)[C@H](OC)COC(=O)[C@H]2CCCN2C(=O)C/C=C\[C@H]1C,–,inactive: -7.67% [at 11.5 µM]
COc1ccccc1NS(=O)(=O)c1cc(NC(=O)/C=C/c2cccs2)ccc1N1CCOCC1,inactive,–
COc1ccc(/C=C/C2=CC(C)(C)NC(=S)N2)cc1,"inconclusive: 10 µM [inhibitor, partial curve]",–

Compound,Potency,"activity, negative = inhibition"
O=C1C=C(c2ccccc2)CC(c2cccs2)C1n1cnc([N+](=O)[O-])c1 (centres undefined),"inconclusive: 25.1 µM [inhibitor, single point]",–
COc1ccccc1C(=O)NC1=NC(c2ccc(Br)cc2)CC(=O)N1 (centres undefined),"inconclusive: 31.6 µM [inhibitor, single point]",–
O=S(=O)(Nc1ncnc2sc3c(c12)CCC3)c1ccc2ccccc2c1,"inconclusive: 2.82 µM [inhibitor, full curve]",–
N#Cc1ccc(C23CC4(C2)[C@H](CN(CC2CCCCC2)[C@@H]4c2ccccc2)C3c2ccccc2)cc1 (some centres undefined),"inconclusive: 3.55 µM [inhibitor, partial curve]",–
CCc1cc2c(SCC(=O)Nc3ncc(Cl)c(C)c3Cl)ncnc2s1,"inconclusive: 31.6 µM [inhibitor, single point]",–
COc1cc(-c2cc(OC)c3c(C)oc(C)c3c(=O)c2)ccc1OC(=O)c1ccccc1F,"inconclusive: 7.94 µM [inhibitor, partial curve]",–
Cc1cc([N+](=O)[O-])nn1CCCC(=O)Nc1sc2c(c1C(N)=O)CCC(C)C2 (centres undefined),"inconclusive: 25.1 µM [inhibitor, single point]",–
COc1cc(-c2nc3ccccn3c2/N=C/c2cccc(F)c2)ccc1O,"inconclusive: 10 µM [inhibitor, partial curve]",–
CCCN(CCC)c1nc2ccccc2nc1C(C#N)C(=O)OCCOC (centres undefined),"inconclusive: 14.1 µM [inhibitor, partial curve]",–
CCc1sc(/C=C(/C#N)C(N)=S)cc1[N+](=O)[O-],active: 28.2 µM,–
C/C(CC(=O)Nc1ccc([N+](=O)[O-])cc1)=N/NC(=O)C1CC12CCC2 (centres undefined),"inconclusive: 44.7 µM [inhibitor, single point]",–
COc1ccc(N2CCN(C(=O)c3ccc4c(Cl)c5c(nc4c3)CCCC5)CC2)cc1,"inconclusive: 8.91 µM [inhibitor, partial curve] and inconclusive: 7.94 µM [inhibitor, partial curve, poor fit]",–
Cc1cccc(OCCN2C(=O)C(=O)c3cc(C)ccc32)c1,"inconclusive: 10 µM [inhibitor, partial curve]",–
O=C(COC(=O)[C@@H]1CCCN1S(=O)(=O)c1ccccc1F)c1ccccc1,inactive,–
NS(=O)(=O)c1ccc(NCc2c(F)cccc2Cl)cc1,inactive,–
Cn1c(=O)n(CCc2ccccc2)c(=O)c2c1nc1n2CCCN1CCc1ccccc1,"inconclusive: 28.2 µM [inhibitor, partial curve]",–
CC(C)(C)OC(=O)N1CC=C2C(C#N)=C(N)C(C#N)(C#N)C(c3cccs3)C2C1 (centres undefined),"inconclusive: 22.4 µM [inhibitor, partial curve]",–
CC(C)OC(=O)CN1C(=O)S/C(=C/c2ccc(N3CCCCC3)o2)C1=O,"inconclusive: 11.2 µM [inhibitor, partial curve]",–
COc1ccc(/C=C/C(=O)c2ccc(NS(=O)(=O)c3ccc(C)cc3)cc2)cc1O,"inconclusive: 12.6 µM [inhibitor, partial curve]",–
Cc1onc(-c2ccccc2)c1C(=O)OCC(=O)NCc1ccc(F)cc1,inactive,–
CCCCC1=CC2=CC(=O)C(C)(OC(=O)CC)C(=O)C2=CN1CCCOC(C)C (centres undefined),"inconclusive: 31.6 µM [inhibitor, single point]",inactive: 0.166% [at 11.5 µM]
